From PubChem BioAssay (Tox21)
Values joined by “and” are separate entries in the source; they are usually repeats but may differ in a detail not shown here. Equal entries are not always repeated. The shares of active, inactive and inconclusive entries below differ from those in the screen. A potency beside an inconclusive call is a rough fit, not a confirmed value. More than one record can exist for a structure, and the calls need not agree. Active and inactive are the calls of the source. Calls follow the shape of the dose curve; as a rule, active = well fitted activation curve with a large enough effect in the repeat runs; inconclusive = weak or mixed curves; inactive = flat fitted curve, though single readings scatter.

Assay: A CellTox Green Cytotoxicity Assay to monitor cytotoxicity in HEK293 cells - 40 hour (AID 1224871); also: nearly all actives have a fitted effect of over 45% in size
Settings: CellTox Green fluorescence; series mostly up to 76.8 µM
Text: National Center for Advancing Translational Sciences [NCATS]
NIH Chemical Genomics Center [NCGC]
U.S. Environmental Protection Agency [EPA]
National Institutes of Environmental Health Sciences [NIEHS]
National Toxicology Program [NTP]
Cell-based models are critical for drug discovery. Determining the natural cytotoxic effects resulting from test compounds is an essential research activity. A CellTox Green Cytotoxicity Assay to monitor cytotoxicity in real time of continues cell culture during 40 hours of the compound treatment was used to screen Tox21 10K library compounds in Hek293 cells. CellTox Green Cytotoxicity Assay is a nonlytic, homogeneous, biofluorescent method to measure cytotoxicity in cell culture after experimental manipulation. The assay system uses a proprietary asymmetric cyanine dye that is excluded from viable cells but preferentially stains the dead cell's DNA. […] Viable cells produce no appreciable increases in fluorescence. Therefore, the fluorescence signal produced by the binding interaction with dead cell DNA is proportional to cytotoxicity.
The mixture of Hek293 cell suspension and reagents were dispensed at 600cells/6 ul/well in 1536-well tissue culture treated black solid bottom plates using a Multidrop dispenser. After the assay plates were incubated at a 37 C/5% CO2 incubator for 5 hours, 23 nL of compounds dissolved in DMSO, positive and negative controls was transferred to the assay plate by a pintool work station. The plates were incubated at 37 C for 40 hours. The fluorescence intensity were measured at 0h, 8h, 16h, 24h, 32h and 40h time points using ViewLux plate reader during compound treatment.
Potency is read from the fitted curve at half-maximal effect; tags tell the direction and shape of the fitted curve.

Row | Compound | Potency
1 | CCCCc1oc2ccccc2c1C(=O)c1cc(I)c(OCCN(CC)CC)c(I)c1 | inconclusive: 26.8 µM [activator, single point]
2 | Clc1ccc(C(Cn2ccnc2)OCc2c(Cl)cccc2Cl)c(Cl)c1 (stereo not given) | inconclusive: 21.3 µM [activator, single point]
3 | CCc1cc(SCc2sc(-c3ccc(C(F)(F)F)cc3)nc2CN2CCN(c3ccc(OC)cc3)CC2)ccc1OCC(=O)O | inconclusive: 54.9 µM [activator, single point]
4 | CCCC(c1cc(C(C)(C)C)c(O)cc1C)c1cc(C(C)(C)C)c(O)cc1C | active: 49.6 µM
5 | CCC(C)Nc1ccc(NC(C)CC)cc1 (stereo not given) | active: 12.5 µM
6 | CN(C)C(=S)SC(=S)N(C)C | active: 1.59 µM and active: 3.09 µM and active: 3.79 µM
7 | Nc1cc([N+](=O)[O-])ccc1O | inconclusive: 1.1 µM [activator, single point]
8 | CCCCCCCC/C=C/CCCCCCCC1=NCCN1CCO | active: 30.9 µM
9 | CC(=O)N1CCN(c2ccc(OC[C@H]3CO[C@](Cn4ccnc4)(c4ccc(Cl)cc4Cl)O3)cc2)CC1 | active: 49 µM
10 | Oc1ccc2cc(SSc3ccc4cc(O)ccc4c3)ccc2c1 | active: 49 µM and active: 24.5 µM
11 | O=C1CCC/C=C\CCCCCCCCCC1 | inconclusive: 38.9 µM [activator, partial curve, poor fit]
12 | Oc1ccc(O)cc1 | inconclusive: 54.6 µM [activator, single point]
13 | Clc1ccc(C(c2ccccc2Cl)C(Cl)Cl)cc1 (stereo not given) | inconclusive: 61.7 µM [activator, single point]
14 | Clc1ccc(C(Cn2ccnc2)OCc2ccsc2Cl)c(Cl)c1 (stereo not given) | inconclusive: 26.8 µM [activator, single point]
15 | O=C(Nc1ccc(Cl)cc1)Nc1ccc(Cl)c(Cl)c1 | active: 8.71 µM
16 | Cc1ccc(O)c2ncccc12 | inconclusive: 23.9 µM [activator, single point]
17 | CCCCCCCCCCCCc1ccccc1O | active: 43.1 µM and active: 34.7 µM
18 | CCCCCCCCCCCCOCC1CO1 (stereo not given) | inconclusive: 24.6 µM [activator, partial curve]
19 | CSCCC=O | inactive
20 | OCC(CO)(CBr)CBr | inconclusive: 61.6 µM [activator, partial curve, poor fit]

Row | Compound | Potency
21 | CN1CCN(CCCN2c3ccccc3Sc3ccc(Cl)cc32)CC1 | inconclusive: 26.8 µM [activator, single point]
22 | COc1cccc(-c2ccc(/C=C\CN3CCCCCC3)cc2Cl)c1 | active: 43.4 µM
23 | CCOC(=O)O[C@H](C)OC(=O)c1ccc2c(c1)cc(C(=O)NC1CCN(C(C)C)CC1)n2Cc1cc(-c2ccc(Cl)s2)on1 | active: 18.2 µM
24 | O=C(Nc1cccc(C(F)(F)F)c1)c1cc(Br)cc(Br)c1O | inconclusive: 43.6 µM [activator, partial curve, poor fit]
25 | CCCCCCCCOC(=O)c1cc(O)c(O)c(O)c1 | inconclusive: 54.9 µM [activator, single point]
26 | COC(=O)[C@]1(C)CCC[C@@]2(C)[C@H]1CC=C1C=C(C(C)C)CC[C@@H]12 | active: 38.9 µM
27 | C/C=C/C=N/NC(=O)c1ccncc1 | inconclusive: 26.8 µM [activator, single point]
28 | CN[C@H]1CC[C@@H](c2ccc(Cl)c(Cl)c2)c2ccc(S(N)(=O)=O)cc21 | active: 27.5 µM
29 | C=C(c1ccc(C(=O)O)cc1)c1cc2c(cc1C)C(C)(C)CCC2(C)C | active: 30.9 µM
30 | C=C(C)C(=O)OCCC[Si](OC)(OC)OC | inconclusive: 61 µM [activator, single point]
31 | CC(=O)OCCOC(C)=O | inactive
32 | C[C@@H]1CC(=O)NN=C1c1ccc(NN=C(C#N)C#N)cc1 | inactive and inconclusive: 26.8 µM [activator, single point]
33 | Cc1cc2c(C(C)C)c(O)c(O)c(C=O)c2c(O)c1-c1c(C)cc2c(C(C)C)c(O)c(O)c(C=O)c2c1O | active: 19 µM
34 | COC(=O)C1=C(C)NC(C)=C(C(=O)OC)C1c1ccccc1[N+](=O)[O-] | inconclusive: 55 µM [activator, single point]
35 | Nc1cc(Cl)c(-c2cc(Cl)c(N)cc2Cl)cc1Cl | inconclusive: 61.6 µM [activator, single point]
36 | CCCCCC(=O)O[C@]1(C(C)=O)CC[C@H]2[C@@H]3CCC4=CC(=O)CC[C@]4(C)[C@H]3CC[C@@]21C | inconclusive: 54.6 µM [activator, single point]
37 | CCCCCCCCCCCCCCCCCC[N+](C)(C)Cc1ccccc1 | active: 19.7 µM
38 | CCN(CC)CCOC(=O)C1(C2CCCCC2)CCCCC1 | active: 23.9 µM
39 | Oc1ccc(Cl)cc1C1CCCC1 | active: 49 µM
40 | C#C[C@]1(O)CC[C@H]2[C@@H]3CCC4=CC(=O)CC[C@@H]4[C@H]3CC[C@@]21CC | inconclusive: 49 µM [activator, single point] and inconclusive: 43.6 µM [activator, partial curve, poor fit]
